In PubChem BioAssay AID1347120 (National Center for Advancing Translational Sciences (NCATS), 2019):
The whole screen tested about 390,000 compounds, of which about 930 (0.24%) were called active. Inconclusive results, whose numbers are uncertain, are shown with a selection of clear calls. Calls follow the shape of the dose curve; as a rule, active = well fitted activation curve with a large enough effect; inconclusive = small, poorly fitted or top-dose-only effect; inactive = no such curve, though single readings can be large or run the other way. A potency beside an inconclusive call is a rough fit, not a confirmed value.

Test: qHTS for Suppressors of FUS Proteinopathy: Primary screen using FUS-linked yeast assay; also: nearly all actives have a fitted effect of over 55% in size;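 as to growth rescue (activation): plate controls were DMSO vehicle for no effect and reference control for full effect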
Conditions: S. cerevisiae FUS-expressing, OD600, 24 h; Potency: growth rescue; growth rescue (activation): at 76.6 µM (top of the series)
In short: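 Cultures pregrown in 2.5% raffinose medium are shifted to minimal medium containing 2% galactose to express toxic FUS. Compounds are tested at several concentrations. After 24hr at 30C, growth is quantified at 600 nm absorbance.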
Potency is read from the fitted curve at half-maximal effect; tags tell the direction and shape of the fitted curve.

| Structure (SMILES) | Potency | growth rescue (activation) |
| --- | --- | --- |
| COc1cc(NC(=O)c2ccccc2)c(C)cc1NC(=O)CSc1nnc(-c2cnccn2)n1-c1ccc(C)cc1 | inconclusive: 25.1 µM [activator, partial curve, poor fit] |  |
| Cc1cccc(NNC(=S)Nc2c(C)cccc2C)c1 |  | inactive: 8.51% |
| CCc1ccccc1NC(=O)Cc1ccc(NC(=O)N2CCCCc3ccccc32)cc1 | inconclusive: 28.2 µM [activator, single point] |  |
| Cc1noc(/C=C/N(C)C)c1S(=O)(=O)N1CCc2ccccc21 | inconclusive: 31.6 µM [activator, single point] |  |
| COC(=O)[C@]12CCCCC=C1N(Cc1ccc(OC)cc1)C(=O)[C@@H]2CC(=O)NCc1ccc(OC)c(OC)c1 | inconclusive: 20 µM [activator, partial curve, poor fit] |  |
| Cc1noc(C)c1CSc1nc2ccccc2n1C | inconclusive: 50.1 µM [activator, partial curve, poor fit] |  |
| CCOC(=O)N1C(=O)C[C@](Sc2ccc(OC)cc2)(C(=O)N2CCCC2)[C@H]1c1ccc(OC)cc1 | inconclusive: 31.6 µM [activator, single point] |  |
| N=c1c(C(=O)NCc2ccc3c(c2)OCO3)cc2c(=O)n3ccccc3nc2n1CC1CCCO1 (configuration not stated) | inconclusive: 10 µM [activator, partial curve, poor fit] |  |
| CCOC(=O)CNC(=O)CSc1nc(Cc2cccs2)nc2ccccc12 | inconclusive: 31.6 µM [activator, single point] |  |
| COc1cc2c(cc1OC)/C(=C/C(=O)c1ccc(OC)c([N+](=O)[O-])c1)NCC2 | inconclusive: 1 µM [activator, full curve, poor fit] |  |
| Clc1nnc2ccc(-c3ccccc3)nn12 |  | inactive: 15.1% |
| C[C@@H]1CN([C@@H](C)CO)C(=O)c2cc(NC(=O)c3ccccc3)ccc2O[C@@H](C)CCCCO[C@@H]1CN(C)S(=O)(=O)c1ccc(F)cc1 | inconclusive: 20 µM [activator, partial curve, poor fit] |  |
| Cc1cccc(COCC(Cc2ccccc2)N2CCN(C(=O)c3ccc(Cl)c(Cl)c3)CCC2=O)c1 (configuration not stated) | inconclusive: 20 µM [activator, single point] |  |
| Cc1cccc(CN2C(=O)[C@H]3Cc4c([nH]c5ccccc45)C(C)(C)N3C2=O)c1 | inconclusive: 35.5 µM [activator, single point] |  |
| CC1(C(=O)Nc2cccc(Oc3ccccc3)c2)Cc2c(-c3ccc4c(c3)OCO4)ccnc2O1 (configuration not stated) | inconclusive: 25.1 µM [activator, single point] |  |
| C/C=C\C=C/C(=O)Nc1cccc(C2=NOC3(C2)C[C@@H](C(N)=O)N(C(=O)COc2ccc(Cl)cc2)C3)c1 (some centres not stated) | inconclusive: 39.8 µM [activator, single point] |  |
| COC(=O)c1ccc(Cn2nnc3c(=O)[nH]c(C4CCN(S(=O)(=O)c5ccc(F)cc5)CC4)nc32)cc1 | inconclusive: 11.2 µM [activator, single point] |  |
| Cc1ccc(C(=O)OCc2cc(=O)n3ccsc3n2)s1 |  | inactive: 21.2% |
| CCCCS(=O)CC(COc1ccc(Cl)cc1)OC(=O)c1ccccc1 (configuration not stated) | inconclusive: 31.6 µM [activator, single point] |  |
| Cc1ccc(NC(=O)C2CC(=O)N(Cc3ccccc3)C2)cc1S(=O)(=O)N1CCCCCC1 (configuration not stated) | inconclusive: 15.8 µM [activator, single point] |  |
| CCOC(=O)[C@]12CCC=C1N(Cc1cccc3ccccc13)C(=O)[C@H](CC(=O)N1CCCC1)C2 | inconclusive: 15.8 µM [activator, single point] |  |

| Structure (SMILES) | Potency | growth rescue (activation) |
| --- | --- | --- |
| COc1ccc(C(=O)Nc2nnc(SCc3cc(=O)n4cccc(C)c4n3)s2)cc1 |  | inactive: 4.81% |
| Cc1cccc(CNC(=O)c2ccc3oc(=O)n(Cc4ccccc4)c3c2)c1 |  | inactive: 5.79% |
| CCCOc1ccc(CNC(=O)CCCn2nc(C)c3sc4ccccc4c3c2=O)cc1 |  | inactive: -7.76% |
| COc1ccc([C@@H]2[C@@H]3C(=O)N(C(C)(C)C)C(=O)[C@@H]3[C@]3(Cc4ccc(Cl)cc4)C(=O)N(c4cccc(C)c4)C(=O)N23)cc1 | inconclusive: 14.1 µM [activator, partial curve, poor fit] |  |
| Cc1cc(C)cc(NC(=O)Cc2c(C(=O)O)c(C)cn2C)c1 |  | inactive: 18.8% |
| O=C(NCc1ccco1)c1ccc2c(c1)N(Cc1c(F)cccc1Cl)C(=O)c1ccccc1S2 | inconclusive: 7.94 µM [activator, partial curve] |  |
| CC(C)c1ccc(NC(=O)CN2C(=O)NC3(CCCC3)C2=O)cc1 |  | inactive: 21.3% |
| O=C(O)c1cc(-c2cccnc2)nn1-c1ccccn1 | inconclusive: 7.08 µM [activator, partial curve, poor fit] |  |
| O=C(Nc1cccc2ccccc12)c1ccco1 |  | inactive: -13.6% |
| COc1ccc(-c2cc(C(=O)NN)n(-c3ccccc3)n2)cc1 | inconclusive: 35.5 µM [activator, single point] |  |
| O=C(Cc1ccc(Cl)c(Cl)c1)OCC(=O)c1ccc[nH]1 | inconclusive: 35.5 µM [activator, single point] |  |
| COc1ccc(Cn2ccc3nc(C)c(C(=O)N4CCN(c5ccc(OC)cc5)CC4)cc3c2=O)cc1 | inconclusive: 44.7 µM [activator, single point] |  |
| O=C(Nc1ccc(Br)cc1)Nc1ccccc1F |  | inactive: -10.7% |
| Clc1ccc(-c2nnc(SCc3cccc4ccccc34)n2-c2ccc(Cl)cc2)cc1 |  | inactive: 39.9% |
| CCCCN(C)S(=O)(=O)c1ccc2[nH]c(=O)oc2c1 |  | inactive: -12.9% |
| O=C(NCc1ccc2c(c1)OCO2)c1cc(-c2ccccc2)c(N2CCOCC2)s1 | inconclusive: 50.1 µM [activator, single point] |  |
| CCC(=O)N1CCN(c2ccc(NC(=S)NC(=O)c3ccc(OC)c([N+](=O)[O-])c3)cc2)CC1 | inconclusive: 25.1 µM [activator, partial curve, poor fit] |  |
| COc1ccc(-c2csc3ncnc(N4CCN(S(=O)(=O)c5ccc(C(C)=O)cc5)CC4)c23)cc1 | inconclusive: 28.2 µM [activator, partial curve] |  |
| CC(=O)Nc1ccc(NC(=O)c2ccc3c(c2)N(Cc2cccc(Cl)c2)C(=O)c2ccccc2S3(=O)=O)cc1 | inconclusive: 25.1 µM [activator, single point] |  |
| Clc1ccc(CO/N=C/c2c(-c3ccccc3)nc3n2CCS3)c(Cl)c1 | inconclusive: 12.6 µM [activator, partial curve, poor fit] |  |
| CC(C)Cn1c(N)c(C(=O)COC(=O)[C@@H]2CCCN2C(=O)c2cccs2)c(=O)n(C)c1=O |  | inactive: 18.1% |

| Structure (SMILES) | Potency | growth rescue (activation) |
| --- | --- | --- |
| COC(=O)[C@@]1(Sc2ccc(C)cc2)CC(=O)N(C(=O)c2ccccc2)[C@@H]1c1ccccc1 | inconclusive: 50.1 µM [activator, single point] |  |
| CCCCOc1cccc(C(=O)N(Cc2ccc(C)o2)c2ccccn2)c1 |  | inactive: 24.8% |
| CC(C)[C@H](CO)N(Cc1cccc(F)c1)c1nc(Nc2cccc(Cl)c2)c2ncn(C(C)C)c2n1 | inconclusive: 14.1 µM [activator, partial curve, poor fit] |  |
| Oc1ccc(CNCC2COc3ccccc3O2)cc1 (configuration not stated) |  | inconclusive: 67.5% [activator] |
| COc1ccc(CN(C)C(=O)c2cc(S(=O)(=O)NCc3ccccc3)ccc2C)c(OC)c1 | inconclusive: 20 µM [activator, partial curve, poor fit] |  |
| COc1ccccc1CNC(=O)CSCc1cnn(-c2ccccc2)c1-n1cccc1 |  | inactive: 31.3% |
| CCOc1cc(/C=N/NC(=O)c2ccncc2)ccc1OC(=O)c1ccc([N+](=O)[O-])cc1 | inconclusive: 39.8 µM [activator, single point] |  |
| O=S1(=O)c2c(cccc2N2CCC[C@H]2CO)O[C@H]2CCN1C2 |  | inactive: 11.7% |
| Oc1ccc(-c2csc(Nc3ccccn3)n2)cc1O |  | inactive: 14.9% |
| O=c1c2ccccc2nnn1CSc1nnc(C2COc3ccccc3O2)n1-c1ccccc1 (configuration not stated) | inconclusive: 39.8 µM [activator, single point] |  |
| CN1CCN(CCCNC(=O)c2ccc(/C=C3\Sc4ccccc4N(Cc4ccc(F)cc4)C3=O)cc2)CC1 | inconclusive: 35.5 µM [activator, single point] |  |
| CN(C)C(=O)c1ccc(Nc2ncnc3sc4c(c23)CCCCC4)cc1 | inconclusive: 11.2 µM [activator, partial curve] |  |
| CCn1c2ccccc2c2cc(NC(=O)c3ccc(Br)o3)ccc21 | inconclusive: 28.2 µM [activator, partial curve, poor fit] |  |
| Cc1cc(-c2ccc(C(C)C)c(S(=O)(=O)N3CC(=O)Nc4ccccc43)c2)on1 | inconclusive: 44.7 µM [activator, single point] |  |
| Cc1[nH]n(-c2ccccc2)c(=O)c1C(c1cccc([N+](=O)[O-])c1O)c1c(C)[nH]n(-c2ccccc2)c1=O | inconclusive: 11.2 µM [activator, partial curve] |  |
| N/C(CC1CC1(Cl)Cl)=N\OC(=O)c1ccccc1 (configuration not stated) |  | inactive: -3.34% |
| CCOC(=O)N1CCC2(CC1)NC(=O)c1ccccc1N2 |  | inactive: -10.5% |
| CCOc1cccc(-c2c(C(=O)N/N=C/c3ccc(C)s3)nnn2-c2nonc2N)c1 | inconclusive: 35.5 µM [activator, single point] |  |
| Cc1ccc(C(=O)C2=C(O)C(=O)N(Cc3cccnc3)C2c2ccc(Cl)c(Cl)c2)o1 (configuration not stated) | inconclusive: 22.4 µM [activator, partial curve, poor fit] |  |
| COC(=O)C1=C(C(=O)OC)[N+]2=C3N(C(=O)NC2(C)C)[C@H](CO)C[C@@]32c3ccccc3N(Cc3ccccc3)[C@@H]12 | inconclusive: 35.5 µM [activator, single point] |  |
